Measurements: article PMC6430800, “Ubiquitination of MAP1LC3B by pVHL is associated with autophagy and cell death in renal cell carcinoma” (Cell Death & Disease, 2019)

Target: Flag-LC3B wild type (F; 1-125 amino acids) (human, UniProt Q9GZQ8)
Assay: pull-down + co-IP; in vitro binding assay; 1 µg of each purified protein incubated at 4 °C overnight, immunoprecipitated with an anti-Flag antibody or pulled down with Ni-NTA resin; western blot
Conditions: both partners purified

binding result: binds
B1: His-VHL-Y98H (natural protein)
chain: not shown
notes: von Hippel-Lindau protein (VHL) with the LIR motif point mutation Y98H; source: E. coli BL21 (DE3), purified (Ni-NTA)
